Assay results: the supplement of paper PMC4967469
Lines with a small IC50 respond at low doses; fits outside the tested doses are given as limits. The AUC spans the tested range (256-fold, ending at the top dose) of the same fit; the more sensitive the line, the further below 1. The top dose, if marked as inferred, comes from the curve model; the source does not state it.

Legend:
Experiment in all cases: Viability of human cancer cell lines after 72 h of drug (GDSC screen)
QL-XII-47 = compound: C=CC(=O)N1CCc2ccc(-n3c(=O)ccc4cnc5ccc(-c6cnn(C)c6)cc5c43)cc21 [QL-XII-47]; conditions: top dose 10.24 µM; top dose inferred
Protocol: (§1)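 Human cancer cell lines in 384-well plates, medium with 10% serum, drug for 72 h over a 256-fold dose range (nine 2-fold or five 4-fold steps up to the top dose). Adherent lines were fixed and stained with the nucleic acid dye Syto60, suspension lines read with resazurin; signal relative to control wells, capped at 0 and 100%. One two-parameter sigmoid per drug and line, fitted in a mixed model over all curves with the slope shared within a line.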

KIN001-266 = compound: CCN1CCC(n2cc(CNc3cc(Cl)c4ncc(C#N)c(Nc5ccc(F)c(Cl)c5)c4c3)nn2)CC1 [KIN001-266]; conditions: top dose 20 µM; top dose inferred
Protocol: as §1

BAY 61-3606 = compound: COc1ccc(-c2cc3nccn3c(Nc3ncccc3C(N)=O)n2)cc1OC [BAY 61-3606]; conditions: top dose 8 µM; top dose inferred
Protocol: as §1

CCT007093 = compound: O=C1/C(=C/c2cccs2)CC/C1=C\c1cccs1 [CCT007093]; conditions: top dose 6.6 µM; top dose inferred
Protocol: as §1

Cell Line | AUC (QL-XII-47) | IC50 (QL-XII-47) | AUC (KIN001-266) | IC50 (KIN001-266) | AUC (BAY 61-3606) | IC50 (BAY 61-3606) | AUC (CCT007093) | IC50 (CCT007093)
EJM (lymphoid neoplasm, semi-adherent) | 0.793 | 3.87 µM | 0.88 | 15 µM | 0.886 | 6.38 µM | 0.991 | > 6.6 µM
SW620 (large intestine, adherent) | 0.5 | 0.641 µM | 0.877 | 16.1 µM | 0.798 | – | 0.988 | > 6.6 µM
Calu-3 (lung adenocarcinoma, adherent) | 0.837 | 9.49 µM | 0.947 | > 20 µM | 0.915 | > 8 µM | 0.983 | > 6.6 µM
KM-H2 (Hodgkin lymphoma, suspension) | 0.853 | 6.16 µM | 0.908 | > 20 µM | 0.94 | > 8 µM | 0.974 | > 6.6 µM
TC-71 (Ewing sarcoma, adherent) | 0.858 | 6.24 µM | 0.835 | 10.2 µM | 0.989 | > 8 µM | 0.991 | > 6.6 µM
BB65-RCC (kidney, adherent) | 0.462 | 0.497 µM | 0.848 | 18.4 µM | 0.827 | 5.88 µM | 0.979 | > 6.6 µM
SK-N-SH (neuroblastoma, adherent) | 0.63 | 1.46 µM | 0.854 | 15.5 µM | 0.727 | 2.19 µM | 0.975 | > 6.6 µM
KY821 (leukaemia, suspension) | 0.851 | 6.33 µM | 0.888 | 17.4 µM | 0.972 | > 8 µM | 0.98 | > 6.6 µM
LOU-NH91 (lung squamous cell carcinoma, adherent) | 0.888 | > 10.2 µM | 0.95 | > 20 µM | 0.916 | > 8 µM | 0.982 | > 6.6 µM
GRANTA-519 (B-cell lymphoma, suspension) | 0.629 | 1.4 µM | 0.885 | 18 µM | 0.949 | > 8 µM | 0.991 | > 6.6 µM
EW-13 (Ewing sarcoma, suspension) | 0.639 | 1.62 µM | 0.704 | 5.02 µM | 0.697 | 1.92 µM | 0.985 | > 6.6 µM
EW-3 (Ewing sarcoma, adherent) | 0.83 | 7.74 µM | 0.868 | > 20 µM | 0.815 | 5.2 µM | 0.978 | > 6.6 µM
NCI-H226 (lung squamous cell carcinoma, adherent) | 0.852 | 8.52 µM | 0.874 | > 20 µM | 0.806 | 4.31 µM | 0.977 | > 6.6 µM
NEC8 (testis, adherent) | 0.461 | 0.508 µM | 0.853 | 12.1 µM | 0.892 | 6.93 µM | 0.973 | > 6.6 µM
RD (rhabdomyosarcoma, adherent) | 0.545 | 0.86 µM | 0.849 | 17.3 µM | 0.966 | > 8 µM | 0.981 | > 6.6 µM
MDA-MB-436 (breast, adherent) | 0.941 | > 10.2 µM | 0.91 | > 20 µM | 0.954 | > 8 µM | 0.97 | > 6.6 µM
NB1 (neuroblastoma, semi-adherent) | – | – | 0.824 | 13.6 µM | 0.697 | 1.91 µM | 0.981 | > 6.6 µM

Cell Line | AUC (QL-XII-47) | IC50 (QL-XII-47) | AUC (KIN001-266) | IC50 (KIN001-266) | AUC (BAY 61-3606) | IC50 (BAY 61-3606) | AUC (CCT007093) | IC50 (CCT007093)
KP-1N (pancreas, adherent) | 0.459 | 0.493 µM | – | – | 0.801 | 4.14 µM | 0.986 | > 6.6 µM
KARPAS-231 (B-cell leukaemia, suspension) | – | – | – | – | 0.695 | 1.52 µM | 0.992 | > 6.6 µM
IST-SL2 (small cell lung carcinoma, suspension) | 0.552 | 0.887 µM | – | – | 0.691 | 1.71 µM | 0.986 | > 6.6 µM
KOSC-2 (head and neck, adherent) | – | – | 0.967 | > 20 µM | 0.985 | > 8 µM | 0.947 | > 6.6 µM
EHEB (lymphoid neoplasm, suspension) | – | – | – | – | 0.751 | 3.76 µM | 0.968 | > 6.6 µM
CHP-126 (neuroblastoma, suspension) | – | – | 0.869 | 19.3 µM | 0.844 | 5.94 µM | 0.987 | > 6.6 µM
LB647-SCLC (small cell lung carcinoma, semi-adherent) | 0.348 | 0.229 µM | – | – | 0.912 | > 8 µM | 0.983 | > 6.6 µM
G-361 (melanoma, adherent) | – | – | 0.863 | 16.1 µM | 0.741 | 2.36 µM | 0.97 | > 6.6 µM
DMS-273 (small cell lung carcinoma, adherent) | – | – | 0.788 | 9.36 µM | 0.741 | 2.58 µM | 0.978 | > 6.6 µM
STS-0421 (soft tissue, adherent) | 0.728 | 3.23 µM | – | – | 0.777 | 3.76 µM | 0.983 | > 6.6 µM
IM-9 (myeloma, suspension) | – | – | – | – | 0.883 | 6.53 µM | 0.992 | > 6.6 µM
JHU-029 (head and neck, adherent) | – | – | – | – | 0.778 | 4.04 µM | 0.972 | > 6.6 µM
Daudi (Burkitt lymphoma, suspension) | – | – | 0.885 | 16.9 µM | 0.539 | 0.629 µM | 0.981 | > 6.6 µM
SU-DHL-16 (B-cell lymphoma, suspension) | – | – | 0.903 | 13.4 µM | 0.62 | 0.976 µM | 0.981 | > 6.6 µM
NCI-H1963 (small cell lung carcinoma, suspension) | – | – | 0.99 | > 20 µM | 0.89 | 7.15 µM | 0.991 | > 6.6 µM
SCC90 (head and neck, adherent) | 0.785 | 6.53 µM | – | – | 0.951 | > 8 µM | 0.981 | > 6.6 µM
SU-DHL-8 (B-cell lymphoma, suspension) | 0.27 | 0.15 µM | 0.81 | 9.67 µM | 0.758 | 2.61 µM | – | –
